PMC9774280
No constants are given. Whether binding was seen depends on the method and setting. In cells and extracts the contact can be indirect. Some entries that bind do so weakly or less than the wild type. For part of these data: Tags and fused reporters may be left off the sequences shown. Blank lines part the entries; values can stand above or below the binder they belong to.

The chains behind the UniProt entries cited, without tags or fusion partners. Residues count along the entry.
UniProt Q9QUK6, residues 26-835: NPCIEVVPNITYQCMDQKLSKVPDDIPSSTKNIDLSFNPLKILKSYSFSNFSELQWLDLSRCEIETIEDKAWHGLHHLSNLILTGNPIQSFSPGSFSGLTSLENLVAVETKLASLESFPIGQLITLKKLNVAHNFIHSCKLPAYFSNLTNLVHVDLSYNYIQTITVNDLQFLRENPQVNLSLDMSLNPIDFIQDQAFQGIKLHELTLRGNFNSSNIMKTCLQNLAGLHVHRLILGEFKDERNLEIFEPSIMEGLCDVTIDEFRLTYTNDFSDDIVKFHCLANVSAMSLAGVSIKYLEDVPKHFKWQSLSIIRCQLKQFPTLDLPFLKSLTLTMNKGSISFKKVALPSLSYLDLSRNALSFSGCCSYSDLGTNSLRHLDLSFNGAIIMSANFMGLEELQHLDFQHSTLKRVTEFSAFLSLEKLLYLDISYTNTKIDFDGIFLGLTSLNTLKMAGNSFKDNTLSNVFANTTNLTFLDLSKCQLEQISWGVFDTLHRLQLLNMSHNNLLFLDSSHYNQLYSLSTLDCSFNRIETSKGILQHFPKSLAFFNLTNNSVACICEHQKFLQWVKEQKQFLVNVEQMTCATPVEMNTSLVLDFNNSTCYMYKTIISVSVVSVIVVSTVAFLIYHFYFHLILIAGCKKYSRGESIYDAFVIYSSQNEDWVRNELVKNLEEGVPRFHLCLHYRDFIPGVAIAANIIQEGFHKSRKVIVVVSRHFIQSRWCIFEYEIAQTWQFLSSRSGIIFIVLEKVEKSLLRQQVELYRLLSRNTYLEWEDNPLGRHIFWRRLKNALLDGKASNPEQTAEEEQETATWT

How the values were obtained:
[1] = biological target: recombinant NAMPT protein (UniProt P43490); assay: co-IP; BMDMs incubated with rNAMPT (1 μg/mL) for 2 h; IP with anti-His, IB with anti-TLR4, anti-CYBB, anti-CYBA, anti-ASC or anti-NLRP3; only the target purified
[2] = biological target: Nicotinamide phosphoribosyl transferase (NAMPT), endogenous, extracellular (e) NAMPT of macrophages (mouse (endogenous in BMDMs and colon)) (UniProt Q99KQ4); assay: co-IP; BMDMs primed with LPS (100 ng/mL) and stimulated with ATP (1 mM); NP-40 lysate; IP with anti-NAMPT, IB with anti-TLR4, anti-CYBB, anti-CYBA, anti-ASC or anti-NLRP3
[3] = biological target: T1, GST-NAMPT (10-116), N-terminus of NAMPT (UniProt P43490); assay: pull-down; 293T cells co-transfected with the GST fusion and the tagged partner; NP-40 lysate, glutathione-Sepharose, 4 °C, 4 h; IB with anti-Flag, anti-V5 or anti-Myc
T1 sequence: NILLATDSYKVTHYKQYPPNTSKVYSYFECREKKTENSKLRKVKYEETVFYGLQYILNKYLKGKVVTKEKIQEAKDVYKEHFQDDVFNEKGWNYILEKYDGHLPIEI

[4] = biological target: TLR4, endogenous (mouse (endogenous in BMDMs and colon)) (UniProt Q9QUK6); assay: co-IP; competition: TAT-NAMPT peptides on BMDMs incubated with rNAMPT; loss of the anti-His co-precipitate of TLR4 or CYBB read out; peptide against the endogenous receptor; only the binder purified
[5] = biological target: T2, CYBB, endogenous (mouse (endogenous in BMDMs and colon)) (UniProt Q61093); assay: as above
T2 sequence: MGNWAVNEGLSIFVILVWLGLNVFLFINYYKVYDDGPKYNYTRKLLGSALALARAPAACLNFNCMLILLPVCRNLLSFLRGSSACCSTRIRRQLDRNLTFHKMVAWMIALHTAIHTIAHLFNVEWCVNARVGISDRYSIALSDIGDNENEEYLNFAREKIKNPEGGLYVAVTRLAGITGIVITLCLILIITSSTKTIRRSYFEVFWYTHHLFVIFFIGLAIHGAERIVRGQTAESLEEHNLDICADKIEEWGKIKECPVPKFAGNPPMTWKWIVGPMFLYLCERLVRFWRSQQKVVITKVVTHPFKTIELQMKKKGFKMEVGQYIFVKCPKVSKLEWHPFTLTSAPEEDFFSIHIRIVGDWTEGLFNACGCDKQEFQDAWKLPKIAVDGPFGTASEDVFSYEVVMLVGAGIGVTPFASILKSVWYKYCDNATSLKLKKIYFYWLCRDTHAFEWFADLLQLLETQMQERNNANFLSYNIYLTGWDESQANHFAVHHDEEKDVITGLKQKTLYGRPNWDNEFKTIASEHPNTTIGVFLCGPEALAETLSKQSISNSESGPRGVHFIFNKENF

[6] = biological target: Nicotinamide phosphoribosyl transferase (NAMPT), endogenous, extracellular (e) NAMPT of macrophages (mouse (endogenous in BMDMs and colon)) (UniProt Q99KQ4); assay: condition: only in Lenti-shITG-transduced (ITGA6/ITGB1 knock-down) mice; co-IP; colon of DSS-treated Lenti-shITG-transduced (ITGA6 and ITGB1 knock-down) mice; IP with anti-His or anti-NAMPT, IB with anti-TLR4, anti-CYBB or anti-CYBA
[7] = biological target: Nicotinamide phosphoribosyl transferase (NAMPT), endogenous, extracellular (e) NAMPT of macrophages (mouse (endogenous in BMDMs and colon)) (UniProt Q99KQ4); assay: co-IP; colon of DSS-treated Lenti-shNS-transduced mice (rVehicle, rCT or rCT-NAMPT given); IP with anti-His or anti-NAMPT, IB with anti-TLR4, anti-CYBB or anti-CYBA

B1: CYBA, endogenous (protein, UniProt Q61462 1-192)
chain: MGQIEWAMWANEQALASGLILITGGIVATAGRFTQWYFGAYSIAAGVLICLLEYPRGKRKKGSTMERCGQKYLTSVVKLFGPLTRNYYVRAALHFLLSVPAGFLLATILGTVCLAIASVIYLLAAIRGEQWTPIEPKPKERPQVGGTIKQPPTNPPPRPPAEVRKKPSEGEEEAASAGGPQVNPMPVTDEVV
- binding [1]: no binding (tested: 1 μg/mL rNAMPT)
- binding [2]: no binding

B2: V5-CYBB (protein, UniProt P04839 1-570)
chain: MGNWAVNEGLSIFVILVWLGLNVFLFVWYYRVYDIPPKFFYTRKLLGSALALARAPAACLNFNCMLILLPVCRNLLSFLRGSSACCSTRVRRQLDRNLTFHKMVAWMIALHSAIHTIAHLFNVEWCVNARVNNSDPYSVALSELGDRQNESYLNFARKRIKNPEGGLYLAVTLLAGITGVVITLCLILIITSSTKTIRRSYFEVFWYTHHLFVIFFIGLAIHGAERIVRGQTAESLAVHNITVCEQKISEWGKIKECPIPQFAGNPPMTWKWIVGPMFLYLCERLVRFWRSQQKVVITKVVTHPFKTIELQMKKKGFKMEVGQYIFVKCPKVSKLEWHPFTLTSAPEEDFFSIHIRIVGDWTEGLFNACGCDKQEFQDAWKLPKIAVDGPFGTASEDVFSYEVVMLVGAGIGVTPFASILKSVWYKYCNNATNLKLKKIYFYWLCRDTHAFEWFADLLQLLESQMQERNNAGFLSYNIYLTGWDESQANHFAVHHDEEKDVITGLKQKTLYGRPNWDNEFKTIASQHPNTRIGVFLCGPEALAETLSKQSISNSESGPRGVHFIFNKENF
- binding [3]: binds

The remaining lines, values ahead:

- binding [4]: binds
- binding [5]: binds
Binder: GRKKRRQRRRPQVKYEETVFYGLQYI (peptide, UniProt P43490 52-65) [TAT–NAMPT (aa 52–65) peptide]

- binding [6]: no binding
- binding [1]: binds
- binding [2]: binds
- binding [7]: binds
B3: CYBB, endogenous (protein, UniProt Q61093 1-570)
chain: T2 sequence
